The whole screen tested about 44,000 compounds, of which about 340 (0.77%) were called active. Roughly 5% stayed inconclusive and do not appear here. Calls follow the shape of the dose curve; as a rule, active = well fitted inhibition curve with a large enough effect; inconclusive = small, poorly fitted or top-dose-only effect; inactive = flat fitted curve, though single readings scatter. This is one part of the list.
Experiment: Acumen qHTS Assay for Inhibitors of the mTORC1 Signaling Pathway in MEF (Tsc2-/-, p53-/-) Cells: Sytravon; also: nearly all actives have a fitted effect of over 50% in size;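 as to activity change, negative = inhibition: plate controls were DMSO for no effect and rapamycin for full effect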
Conditions: phospho-rpS6 immunofluorescence/PI, 24 h; series mostly up to 38.3 µM; activity change, negative = inhibition: at the top concentration
Procedure, shortened: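 Read-out: phospho-S6 Alexa-488 intensity over PI intensity per well, scored as % active cells using thresholds from rapamycin (7.5 nM) and DMSO controls. Tsc2-/-, p53-/- MEFs exposed to compound for 24 h; PI cell count recorded as viability.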
Potency is read from the fitted curve at half-maximal effect.

Row | SMILES | activity change, negative = inhibition | Potency
1 | N#Cc1c(-n2ncnc2-c2cccc(Cl)c2)sc2c1CCCCC2 | inactive: 11.6% | –
2 | O=C1CN(C(=O)c2cccc(Br)c2)C(c2ccccc2)c2cc(Cl)ccc2N1 (stereo not given) | inactive: -0.142% | –
3 | CCOc1cccc(-c2nc3ccccc3c(=O)o2)c1 | inactive: -4.6% | –
4 | COc1cccc(C(=O)Nc2nc(-c3nnn(-c4cc(C)ccc4C)c3C)ns2)c1 | inactive: 6.19% | –
5 | Cc1cc(C)c2oc(C(=O)NCCc3ccc(S(N)(=O)=O)cc3)cc(=O)c2c1 | inactive: 1.76% | –
6 | CC(C)(C)c1ccc(C(=O)NC2=NC(c3cccc(F)c3)CC(=O)N2)cc1 (stereo not given) | inactive: -10.3% | –
7 | O=C1CC(c2ccccc2)Cc2[nH]c(=O)c(-c3nc(-c4ccc(Cl)c(Cl)c4)cs3)cc21 (stereo not given) | inactive: -1.55% | –
8 | COc1ccc(Cl)cc1NC(=O)C(=O)NCc1ccc(Cl)cc1 | inactive: -0.731% | –
9 | O=C(CNS(=O)(=O)c1ccc(Br)s1)N1CCN(c2ccc(F)cc2)CC1 | inactive: -9.46% | –
10 | CCS(=O)(=O)NCCc1sc2nc(-c3ccc(OC)cc3)nn2c1C | inactive: -1.86% | –
11 | Cc1ccc(NC(=O)N2CCN(C(=O)c3nsc4ccccc34)CC2)cc1C | inactive: 8.32% | –
12 | COCCNS(=O)(=O)c1cc(-c2nn3c(C)nnc3c3ccccc23)ccc1C | inactive: -0.128% | –
13 | Cc1cccc(CCn2c(=O)c3ccccc3n(Cc3ccccc3C)c2=O)c1 | inactive: 0.398% | –
14 | Cc1ccc(C(=O)c2sc(Nc3ccc(F)cc3)c(C#N)c2N)cc1 | inactive: -6.98% | –
15 | COc1cccc(NC(=O)CN2C=NS(=O)(=O)c3ccccc32)c1 | inactive: -6.12% | –
16 | CCOc1ccccc1NC(=O)N1CC(C)Oc2ccc(Cl)cc21 (stereo not given) | inactive: 9.32% | –
17 | CCOC(=O)c1cnc(NCc2ccc(OC)cc2OC)c2ccccc12 | inactive: -18.2% | –
18 | Cc1ccc(OC(=O)CSc2nnc(-c3ccc4c(c3)OCO4)o2)c(C)c1 | inactive: 2.02% | –
19 | COc1ccc2c(c1)c1c(c(=O)n(Cc3ccccc3)c(=O)n1CC(=O)Nc1ccccc1F)n2C | inactive: -3.49% | –
20 | Cc1cccn2c(=O)cc(COc3ccc(NC(=O)COc4ccc(F)cc4)cc3)nc12 | inactive: -2.17% | –
21 | CNC(=O)C1CCCN(c2nnc(C)c3c(C)n(-c4ccccc4)nc23)C1 (stereo not given) | inactive: -0.247% | –
22 | CCOCCCNC(=O)c1ccc(-c2nc(CS(=O)(=O)c3ccccc3)c(C)o2)cc1 | inactive: -5.26% | –
23 | COc1ccc(-c2nc3sc(CCNC(=O)C(C)(C)C)c(C)n3n2)cc1 | inactive: -0.396% | –
24 | O=C(O)CCc1ccc(-c2ccc(Br)cc2)n1-c1ccccc1O | inactive: 3.84% | –

Row | SMILES | activity change, negative = inhibition | Potency
25 | CCOC(=O)C1CCN(c2cc3c(cc2NC(=O)c2ccccc2Cl)n(C)c(=O)n3C)CC1 | inactive: -0.865% | –
26 | CCCCN(CC)CCNC(=O)Cn1cnc2sc(C)c(S(=O)(=O)N3CCN(c4ccccc4OC)CC3)c2c1=O | inactive: 5.19% | –
27 | CCOc1ccc2nc(N3CCCC(C(=O)NCCc4ccc(OC)cc4OC)C3)sc2c1 (stereo not given) | inactive: -11.1% | –
28 | CCOc1ccc(N2CC(c3nc4ccccc4n3CCOc3ccc(OC)cc3)CC2=O)cc1 (stereo not given) | inactive: 2.25% | –
29 | Cc1cc2nc(-c3ccc(NC(=O)c4ccc(OCC(C)C)cc4)cc3)oc2cc1C | inactive: -11.2% | –
30 | O=C(Nc1ccc(F)c(Cl)c1)c1cc(S(=O)(=O)NCc2ccc3c(c2)OCO3)ccc1F | inactive: -26.6% | –
31 | CCOc1cccc2sc(N(Cc3cccnc3)C(C)=O)nc12 | inactive: -0.645% | –
32 | CC(NC(=O)CCc1cn(Cc2ccccc2Cl)c2ccccc12)c1ccccc1 (stereo not given) | inactive: 0% | –
33 | O=C(NCCc1ccccc1)c1ccc(CSc2nc3cccnc3n2Cc2ccccc2)cc1 | inactive: -18.4% | –
34 | COc1ccc(/C=C/c2nc(C#N)c(N3CCC(C(N)=O)CC3)o2)cc1OC | inactive: -1.14% | –
35 | Cc1c(NC(=O)Nc2cccc(C(F)(F)F)c2)sc2nc3n(c(=O)c12)CCC(C)CC3 (stereo not given) | inactive: -0.948% | –
36 | Cc1ccc(-c2nc(CS(=O)(=O)CC(=O)NC(C)CCc3ccccc3)c(C)o2)cc1 (stereo not given) | inactive: 0.175% | –
37 | O=C(NCCO)C(=O)NCC(c1ccc2c(c1)OCO2)N1CCOCC1 (stereo not given) | inactive: -1.28% | –
38 | O=C(CCS(=O)(=O)c1ccccc1)N(Cc1cccnc1)c1nc2c(F)cccc2s1 | – | active: 3.69 µM
39 | COc1ccc(C(CC(=O)Nc2ccccn2)N2Cc3ccccc3C2=O)cc1OC (stereo not given) | inactive: -2.63% | –
40 | CCOC(=O)c1nnc2c(-c3ccc(Cl)cc3)c(C)nn2c1N | inactive: -0.428% | –
41 | CCc1ccccc1NC(=O)Cn1nnc(C(=O)NCc2ccco2)c1N | inactive: -1.56% | –
42 | CC(=O)Nc1ccc(NC(=O)c2csnn2)cc1 | inactive: -6.09% | –
43 | COCCN1C(=O)N(c2cccc(OC)c2)C(=O)C1CC(=O)Nc1ccccc1 (stereo not given) | inactive: -17.3% | –
44 | O=C(NCc1ccc(Cl)cc1)C(=O)NCC(c1ccc2c(c1)OCO2)N1CCOCC1 (stereo not given) | inactive: -3.49% | –
45 | COc1cc2ccccc2cc1C(=O)N1CCN(c2nc3c(F)cccc3s2)CC1 | inactive: 3.28% | –
46 | CCCCc1nn2c(=O)cc(COC(=O)c3cccc(NC(=O)c4cccs4)c3)nc2s1 | inactive: 0% | –
47 | O=C(c1ccccc1)N1CCC(c2nc3ccccc3o2)CC1 | inactive: -20.7% | –
48 | CC(=O)c1ccc(NC(=O)c2cc3c([nH]c2=O)CC(c2ccccc2)CC3=O)cc1 (stereo not given) | inactive: -1.57% | –

Row | SMILES | activity change, negative = inhibition | Potency
49 | CCOc1ccc2c(c1)c(=O)c(C(=O)c1ccccc1)cn2Cc1ccccc1F | inactive: -1.41% | –
50 | COc1ccc(CCNC(=O)c2cnn(-c3cccc(C)c3)c2C2CCNCC2)cc1OC | inactive: -6.47% | –
51 | CN1C(=O)Cc2cc(S(=O)(=O)CCC(=O)Nc3ccc(Cl)cc3)ccc21 | inactive: 0% | –
52 | CCN(CC)C(=O)c1sc2c(c1C)c(=O)n(-c1ccc(C)c(C)c1)c(=O)n2CC(=O)Nc1ccc(OC)cc1OC | inactive: 2.58% | –
53 | Cc1cc(F)ccc1NC(=O)CCS(=O)(=O)c1cc2c3c(c1)CCN3C(=O)CC2 | inactive: 0.634% | –
54 | COc1ccc(OC)c(CNS(=O)(=O)c2cc(-c3onc(C)c3C)ccc2C)c1 | inactive: -6.27% | –
55 | Cc1cc(C)n2c(Nc3ccc4c(c3)OCCO4)c(-c3ccccc3)nc2n1 | inactive: -9.03% | –
56 | COc1ccc(N2CCN(CCCNC(=O)c3nnc(Cc4ccccc4Cl)o3)CC2)cc1 | inactive: -23.1% | –
57 | CC(=O)c1ccc(NC(=O)CSc2nnc(-c3ccncc3)n2-c2ccccc2)cc1 | inactive: -7.39% | –
58 | COc1ccc(/C=C/C(=O)Nc2cc(-c3nc4ccccc4o3)ccc2OC)cc1 | inactive: 5.56% | –
59 | Cc1ccc(S(=O)(=O)c2[nH]c(-c3ccccc3)nc2SC(C)C(=O)O)cc1 (stereo not given) | inactive: 1.16% | –
60 | FC(F)(F)c1cccc(N2CCN(c3nc4ccccc4n4cnnc34)CC2)c1 | inactive: -0.598% | –
61 | COc1ccc(-n2c(SC)nc3sc4c(c3c2=O)CCN(C(C)=O)C4)cc1 | inactive: 0% | –
62 | Cc1ccc(NC(=O)CSc2nnc(-c3cc4occc4n3C)n2-c2ccccc2C)c(C)c1 | inactive: -12.1% | –
63 | COc1ccc(CNC(=O)C2CCN(C(=O)c3cnn(-c4ccccc4)c3-n3cccc3)CC2)cc1 | inactive: -0.766% | –
64 | Cc1ccn2c(=O)cc(COc3ccc(NC(=O)C(C)(C)C)cc3)nc2c1 | inactive: 1.11% | –
65 | Cc1ccc2c(c1)N(C(=O)Nc1ccc(Br)cc1F)CCO2 | inactive: -5.23% | –
66 | COC(=O)c1ccccc1NC(=O)CSc1n[nH]c(C)n1 | inactive: -2.71% | –
67 | O=c1c2sc3ccccc3c2n(Cc2cccc(C(F)(F)F)c2)c(=O)n1-c1ccccc1 | inactive: 3.1% | –
68 | CC(C)Oc1ccc(CNC(=O)CN2C(=O)c3cccnc3Oc3ccc(Cl)cc32)cc1 | inactive: -5.75% | –
69 | CCS(=O)(=O)N1CCc2cc(C(=O)NC(C)c3ccccc3)ccc21 (stereo not given) | inactive: -2.93% | –
70 | COc1ccc(S(=O)(=O)c2cc3cc(C(C)(C)C)cc(O)c3oc2=O)cc1 | inactive: -10.6% | –
71 | Cn1c(COc2ccccc2C(C)(C)C)nc2ccccc21 | inactive: 0% | –
72 | CCCCCn1c(=N)c(S(=O)(=O)c2ccc(C)cc2)cc2c(=O)n3cc(C)ccc3nc21 | inactive: 2.3% | –

Row | SMILES | activity change, negative = inhibition | Potency
73 | CC(C)(CC(=O)NCc1ccc(Cl)cc1Cl)CC1=NS(=O)(=O)c2ccccc2N1 | inactive: -0.125% | –
74 | Cn1c2c(c(=O)n(C)c1=O)C(c1ccccc1C(F)(F)F)CC(=O)N2 (stereo not given) | inactive: -4.17% | –
75 | CCOC(=O)c1ccc(CN(Cc2ccc(F)cc2)S(=O)(=O)c2ccc(F)c(C(=O)Nc3ccccc3C(F)(F)F)c2)cc1 | inactive: 1.1% | –
76 | COC(=O)c1ccc(NS(=O)(=O)c2ccc3c(c2)n(C)c(=O)c(=O)n3C)cc1 | inactive: -0.443% | –
77 | CCNC(=O)CC1C(=O)N(c2ccc(F)cc2)C(=O)N1Cc1ccc(OC)c(OC)c1 (stereo not given) | inactive: -9.58% | –
78 | Cc1ccc(C(=O)N2CCN(c3cccc(Cl)c3)CC2)cc1-n1c(C)nc2cccnc21 | inactive: -1.74% | –
79 | CCc1ccccc1N(CC)C(=O)C(=O)Nc1ccc2nc3n(c(=O)c2c1)CCCCC3 | inactive: 1.83% | –
80 | O=C(c1ccc2c(c1)N(Cc1cccc(Cl)c1)C(=O)c1ccccc1S2(=O)=O)N1CCc2ccccc21 | inactive: -0.534% | –
81 | COc1cc(Cl)c(C)cc1NC(=O)C1CCCN(c2ncnc3onc(-c4ccc(F)cc4)c23)C1 (stereo not given) | inactive: -4.33% | –
82 | Cc1cc2c(cc1S(=O)(=O)N(C)CC(=O)Nc1cccc(C#N)c1)OCC(=O)N2 | inactive: -2.25% | –
83 | CCOC(=O)c1cccc(NC(=O)CCn2nc(C)c3c(C)n(-c4ccccc4)nc3c2=O)c1 | inactive: -9.53% | –
84 | COCCCNC(=O)C1CCCN(S(=O)(=O)c2ccc3c(c2)oc(=O)n3C)C1 (stereo not given) | inactive: 9.07% | –
85 | Cc1ccc(C)c(NC(=O)N2CCC(N3CCN(Cc4ccc(F)cc4)C(=O)C3=O)CC2)c1 | inactive: 9.34% | –
86 | COc1ccccc1CNC(=O)c1ccc(CN2CC(=O)N3CCCCC3C2=O)cc1 (stereo not given) | inactive: -3.66% | –
87 | CCN(CC)c1ccc(NC(=O)CN2CCN(CC(=O)Nc3ccccc3OC)CC2)cc1 | inactive: -1.85% | –
88 | CCOCCCn1c(SCC(=O)NCCCOC)nc2c(sc3ccccc32)c1=O | inactive: -8.92% | –
89 | Cc1c(NC(=O)c2ccccc2)cc(C(C)C)c(O)c1S(=O)(=O)c1ccc(Cl)cc1 | inactive: -1.93% | –
90 | Fc1ccc(Nc2ncnc3c2nc2n3CCCC2)cc1 | inactive: -4.34% | –
91 | CCOCCCNC(=O)c1c[nH]c2ccc(S(=O)(=O)Nc3cccc(Cl)c3C)cc2c1=O | inactive: -1.52% | –
92 | CCOC(=O)N1CCc2c(sc3c2c(=O)n(-c2ccc(Cl)cc2)c(=O)n3Cc2cccc(C)c2)C1 | inactive: -1.96% | –
93 | COc1ccccc1N1CCN(S(=O)(=O)c2cc3[nH]c(=O)c(=O)[nH]c3cc2C)CC1 | inactive: 0.677% | –
94 | O=C(NCCS(=O)(=O)N1CCN(c2ccc(F)cc2)CC1)c1cc(=O)c2ccccc2o1 | inactive: 0.966% | –
95 | Cc1ccc(C)c(NC(=O)C(Cc2ccccc2)N2Cc3ccccc3C2=O)c1 (stereo not given) | inactive: -13.2% | –
